# Reference: the antibiotic and cytotoxicity screens of Wong et al. (2023)
# This is one part of the list.
# Tested on: HepG2
# Experiment: cytotoxicity call (relative viability < 0.9)
# Settings: 10 µM
row,SMILES,cytotoxicity call
1,C[C@@H]1CCCCO[C@H](CN(C)S(=O)(=O)c2ccccc2)[C@H](C)CN([C@@H](C)CO)C(=O)c2cc(NS(=O)(=O)c3cn(C)cn3)ccc2O1,inactive
2,COc1cc(OC)nc(N=CNO)n1,inactive
3,O=C(C[C@H]1C=C[C@@H](NC(=O)C2CC2)[C@H](CO)O1)NCCCN1CCOCC1,inactive
4,COc1ccc(NC(=O)Nc2cccc3c2O[C@@H](CN(C)C(=O)Nc2ccc(C(F)(F)F)cc2)[C@H](C)CN([C@H](C)CO)C3=O)cc1,inactive
5,C[C@@H]1CCCCO[C@@H](CN(C)Cc2ccncc2)[C@H](C)CN([C@H](C)CO)C(=O)c2cc(NC(=O)c3ccccc3)ccc2O1,inactive
6,COc1nc(C)nc(Cl)c1NC1=NCCN1,inactive
7,CC(C)[C@@H](CO)N1C(=O)[C@@H]2[C@H]3C(=O)O[C@H](C)CC/C=C\[C@H]3O[C@]23C=CCN(Cn2nnc4ccccc42)C(=O)[C@@H]13,inactive
8,C[C@H]1CN([C@@H](C)CO)C(=O)c2cccc(NS(=O)(=O)c3ccc(Cl)cc3)c2O[C@@H]1CN(C)S(=O)(=O)c1cn(C)cn1,inactive
9,CC(C)CC#Cc1cnc2c(c1)C(=O)N([C@H](C)CO)C[C@@H](C)[C@@H](CN(C)S(=O)(=O)c1cn(C)cn1)O2,inactive
10,CC[N+](CC)(CC)CCOc1cccc(OCC[N+](CC)(CC)CC)c1OCC[N+](CC)(CC)CC,inactive
11,COc1ccc(S(=O)(=O)N(C)C[C@@H]2Oc3cc(C#CC4CCCC4)ccc3S(=O)(=O)N([C@H](C)CO)C[C@H]2C)cc1,inactive
12,C[C@@H](N)CCP(=O)(O)O,inactive
13,Cc1noc(C)c1NC(=O)Nc1cccc2c1O[C@@H](CN(C)S(=O)(=O)c1cn(C)cn1)[C@H](C)CN([C@@H](C)CO)C2=O,inactive
14,CCCCCCc1ccc(O)cc1O.Nc1c2ccccc2nc2ccccc12,active
15,NC[C@H]1Cc2ccccc2O1,inactive
16,C[C@@H]1CN([C@@H](C)CO)C(=O)c2cc(C3=CCCC3)cnc2O[C@@H]1CN(C)C(=O)c1ccc2c(c1)OCO2,inactive
17,C[C@@H]1CN([C@H](C)CO)S(=O)(=O)c2ccc(-c3ccc(C(=O)N(C)C)cc3)cc2O[C@@H]1CN(C)C(=O)C1CC1,inactive
18,O=C([O-])C(O)C(O)C(O)C(O)C(O)CO.O=C([O-])C(O)C(O)C(O)C(O)C(O)CO.[Ca+2] (stereo not drawn),inactive
19,C=CC(=O)N[C@@H]1CN(c2nc(Nc3cn(C)nc3OC)c3ncn(C)c3n2)C[C@H]1F,inactive
20,Cc1ccc(S(=O)(=O)Nc2ccc3c(c2)C(=O)N([C@H](C)CO)C[C@@H](C)[C@H](CN(C)C(=O)Nc2ccccc2)OCCCC[C@H](C)O3)cc1,inactive
21,O=C(C[C@@H]1C[C@@H]2c3cc(NC(=O)Nc4ccc(C(F)(F)F)cc4)ccc3O[C@@H]2[C@H](CO)O1)NCCc1ccccc1,inactive
22,CC(C)NC(=O)Nc1ccc2c(c1)CC(=O)N([C@H](C)CO)C[C@@H](C)[C@@H](CN(C)S(=O)(=O)c1ccc(F)cc1)O2,inactive
23,COc1ccc(-n2c(N)cc(=O)[nH]c2=O)cc1,inactive
24,C[C@@H]1CCCCO[C@@H](CN(C)Cc2ccc(C(=O)O)cc2)[C@H](C)CN([C@@H](C)CO)C(=O)c2cc(NS(=O)(=O)c3ccccc3)ccc2O1,inactive
25,CC(=O)N1C[C@@H]2C(=O)N(C)C3(CCN(S(=O)(=O)Cc4ccccc4)CC3)[C@H]2C1,inactive
26,Cc1ncc([N+](=O)[O-])n1CCO,inactive
27,C[C@H](CO)N1C[C@H](C)[C@@H](CN(C)S(=O)(=O)c2ccccc2)Oc2c(NS(=O)(=O)c3ccc(F)cc3)cccc2C1=O,inactive
28,C[C@H]1CN([C@@H](C)CO)S(=O)(=O)c2ccc(C#CC3CC3)cc2O[C@@H]1CN(C)Cc1ccc(F)cc1,inactive

# Tested on: S. aureus RN4220
# Experiment: growth inhibition call (relative growth <= 0.2)
# Settings: 50 µM
row,SMILES,growth inhibition call
1,O=C(O)c1ccc(O)c(O)c1O,inactive
2,CO[C@H]1CN(C)C(=O)c2ccc(NC(=O)C3CC3)cc2OC[C@H](C)N(C(=O)CN2CCOCC2)C[C@@H]1C,inactive
3,C[C@H](CO)N1C[C@H](C)[C@@H](CN(C)S(=O)(=O)c2cn(C)cn2)Oc2ccc(NC(=O)Nc3ccc(F)cc3)cc2C1=O,inactive
4,O=C(C[C@H]1C[C@H]2c3cc(NC(=O)NC4CCCC4)ccc3O[C@H]2[C@H](CO)O1)NCc1ccc2c(c1)OCO2,inactive
5,Cc1ccc(S(=O)(=O)N(C)C[C@H]2Oc3ccc(NC(=O)CCCN(C)C)cc3C(=O)N([C@@H](C)CO)C[C@@H]2C)cc1,inactive
6,C[C@H]1CN([C@@H](C)CO)C(=O)c2cc(NC(=O)c3ccncc3)ccc2O[C@H]1CN(C)S(=O)(=O)c1cccs1,inactive
7,Cc1noc(C)c1NC(=O)N[C@@H]1CC[C@@H](CC(=O)NCCCN(C)C)O[C@@H]1CO,inactive
8,C[C@@H]1CN([C@H](C)CO)C(=O)Cc2cc(NC(=O)CCN3CCOCC3)ccc2O[C@H]1CN(C)S(=O)(=O)c1ccc(Cl)cc1,inactive
9,Cc1cc(C(=O)Nc2cccc3c2O[C@H](CN(C)Cc2ccncc2)[C@@H](C)CN([C@@H](C)CO)C3=O)n(C)n1,inactive
10,Cc1ccc(S(=O)(=O)N(C)C[C@@H]2OCCCC[C@H](C)Oc3ccc(NC(=O)NC4CCCCC4)cc3C(=O)N([C@@H](C)CO)C[C@H]2C)cc1,inactive
11,N[C@@H](COP(=O)(O)O)C(=O)O,inactive
12,C[C@@H]1CCCCO[C@H](CN(C)Cc2ccncc2)[C@H](C)CN([C@@H](C)CO)C(=O)c2cc(NC(=O)c3ccccc3)ccc2O1,inactive
13,C[C@@H]1CCCCO[C@H](CN(C)S(=O)(=O)c2ccccc2)[C@H](C)CN([C@@H](C)CO)C(=O)c2cc(NS(=O)(=O)c3cn(C)cn3)ccc2O1,inactive
14,COc1cc(OC)nc(N=CNO)n1,inactive
15,O=C(C[C@H]1C=C[C@@H](NC(=O)C2CC2)[C@H](CO)O1)NCCCN1CCOCC1,inactive
16,COc1ccc(NC(=O)Nc2cccc3c2O[C@@H](CN(C)C(=O)Nc2ccc(C(F)(F)F)cc2)[C@H](C)CN([C@H](C)CO)C3=O)cc1,inactive
17,C[C@@H]1CCCCO[C@@H](CN(C)Cc2ccncc2)[C@H](C)CN([C@H](C)CO)C(=O)c2cc(NC(=O)c3ccccc3)ccc2O1,inactive
18,COc1nc(C)nc(Cl)c1NC1=NCCN1,inactive
19,CC(C)[C@@H](CO)N1C(=O)[C@@H]2[C@H]3C(=O)O[C@H](C)CC/C=C\[C@H]3O[C@]23C=CCN(Cn2nnc4ccccc42)C(=O)[C@@H]13,inactive
20,C[C@H]1CN([C@@H](C)CO)C(=O)c2cccc(NS(=O)(=O)c3ccc(Cl)cc3)c2O[C@@H]1CN(C)S(=O)(=O)c1cn(C)cn1,inactive

row,SMILES,growth inhibition call
1,CC(C)CC#Cc1cnc2c(c1)C(=O)N([C@H](C)CO)C[C@@H](C)[C@@H](CN(C)S(=O)(=O)c1cn(C)cn1)O2,inactive
2,CC[N+](CC)(CC)CCOc1cccc(OCC[N+](CC)(CC)CC)c1OCC[N+](CC)(CC)CC,inactive
3,COc1ccc(S(=O)(=O)N(C)C[C@@H]2Oc3cc(C#CC4CCCC4)ccc3S(=O)(=O)N([C@H](C)CO)C[C@H]2C)cc1,inactive
4,C[C@@H](N)CCP(=O)(O)O,inactive
5,Cc1noc(C)c1NC(=O)Nc1cccc2c1O[C@@H](CN(C)S(=O)(=O)c1cn(C)cn1)[C@H](C)CN([C@@H](C)CO)C2=O,inactive
6,CCCCCCc1ccc(O)cc1O.Nc1c2ccccc2nc2ccccc12,inactive
7,NC[C@H]1Cc2ccccc2O1,inactive
8,C[C@@H]1CN([C@@H](C)CO)C(=O)c2cc(C3=CCCC3)cnc2O[C@@H]1CN(C)C(=O)c1ccc2c(c1)OCO2,inactive
9,C[C@@H]1CN([C@H](C)CO)S(=O)(=O)c2ccc(-c3ccc(C(=O)N(C)C)cc3)cc2O[C@@H]1CN(C)C(=O)C1CC1,inactive
10,O=C([O-])C(O)C(O)C(O)C(O)C(O)CO.O=C([O-])C(O)C(O)C(O)C(O)C(O)CO.[Ca+2] (stereo not drawn),inactive
11,C=CC(=O)N[C@@H]1CN(c2nc(Nc3cn(C)nc3OC)c3ncn(C)c3n2)C[C@H]1F,inactive
12,Cc1ccc(S(=O)(=O)Nc2ccc3c(c2)C(=O)N([C@H](C)CO)C[C@@H](C)[C@H](CN(C)C(=O)Nc2ccccc2)OCCCC[C@H](C)O3)cc1,inactive
13,O=C(C[C@@H]1C[C@@H]2c3cc(NC(=O)Nc4ccc(C(F)(F)F)cc4)ccc3O[C@@H]2[C@H](CO)O1)NCCc1ccccc1,inactive
14,CC(C)NC(=O)Nc1ccc2c(c1)CC(=O)N([C@H](C)CO)C[C@@H](C)[C@@H](CN(C)S(=O)(=O)c1ccc(F)cc1)O2,inactive
15,COc1ccc(-n2c(N)cc(=O)[nH]c2=O)cc1,inactive
16,C[C@@H]1CCCCO[C@@H](CN(C)Cc2ccc(C(=O)O)cc2)[C@H](C)CN([C@@H](C)CO)C(=O)c2cc(NS(=O)(=O)c3ccccc3)ccc2O1,inactive
17,CC(=O)N1C[C@@H]2C(=O)N(C)C3(CCN(S(=O)(=O)Cc4ccccc4)CC3)[C@H]2C1,inactive
18,Cc1ncc([N+](=O)[O-])n1CCO,inactive
19,C[C@H](CO)N1C[C@H](C)[C@@H](CN(C)S(=O)(=O)c2ccccc2)Oc2c(NS(=O)(=O)c3ccc(F)cc3)cccc2C1=O,inactive
20,C[C@H]1CN([C@@H](C)CO)S(=O)(=O)c2ccc(C#CC3CC3)cc2O[C@@H]1CN(C)Cc1ccc(F)cc1,inactive
